The campaign covered roughly 39,000 compounds. About 220 (0.56%) showed activity. The list shows a part of the results.
Tested on: Escherichia coli K-12 BW25113
Test: relative growth (OD600 normalised to plate interquartile mean) (fraction); higher = less growth inhibition, active = 0.2 or less
Conditions: 50 µM; LB; incubation time: overnight (16-24 h)
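Further: static incubation at 37 °C against the wild-type strain, values averaged over two biological replicates.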

SMILES	relative growth
C[C@@H]1CN([C@@H](C)CO)C(=O)c2cc(NC(=O)c3ccccc3)ccc2O[C@@H](C)CCCCO[C@H]1CN(C)C(=O)Cc1ccccc1	inactive: 1.01
C[C@H](CO)N1C[C@H](C)[C@@H](CN(C)Cc2ccc(Oc3ccccc3)cc2)Oc2ccc(NC(=O)Nc3cccc4ccccc34)cc2CC1=O	inactive: 1.04
COc1ccc(NC(=O)Nc2ccc3c(c2)C(=O)N([C@@H](C)CO)C[C@@H](C)[C@@H](CN(C)Cc2ccncc2)OCCCC[C@@H](C)O3)cc1	inactive: 0.983
O=C1Nc2ccccc2O[C@@H]1CCO	inactive: 0.964
CC(C)NC(=O)N(C)C[C@H]1Oc2ccc(NS(=O)(=O)c3ccc(Cl)cc3)cc2CC(=O)N([C@@H](C)CO)C[C@@H]1C	inactive: 0.997
C[C@H]1CCCCO[C@H](CN(C)Cc2ccc(C(=O)O)cc2)[C@@H](C)CN([C@@H](C)CO)C(=O)c2cc(NS(=O)(=O)c3ccccc3)ccc2O1	inactive: 1
C[C@H]1CN([C@@H](C)CO)C(=O)c2cccc(NS(=O)(=O)c3cn(C)cn3)c2O[C@H]1CN(C)Cc1ccc(C(=O)O)cc1	inactive: 0.977
C[C@@H]1CN([C@@H](C)CO)C(=O)c2cc(NC(=O)CCCN(C)C)ccc2O[C@H]1CN(C)Cc1ccccc1	inactive: 1.02
CNC[C@H]1OCCCC[C@@H](C)Oc2ccc(NC(=O)c3ccncc3)cc2C(=O)N([C@@H](C)CO)C[C@@H]1C	inactive: 0.988
C[C@H]1CCCCO[C@@H](CN(C)CC2CCCCC2)[C@@H](C)CN([C@@H](C)CO)C(=O)c2cc(NC(=O)NC3CCCCC3)ccc2O1	inactive: 0.976
CC(C)c1ccc2c(ccc[n+]2C)c1	inactive: 1.01
c1ccc(COCc2ccccc2)cc1	inactive: 1.01
Cc1noc(C)c1NC(=O)N(C)C[C@H]1Oc2ccc(NC(=O)C3CC3)cc2CC(=O)N([C@@H](C)CO)C[C@H]1C	inactive: 0.987
C[C@@H]1CN([C@H](C)CO)C(=O)c2cc(NC(=O)Cn3cnnn3)ccc2O[C@@H]1CN(C)CC1CCCCC1	inactive: 1.01
COc1ccc(CN(C)C[C@H]2Oc3ccc(NC(=O)Nc4ccc(C(F)(F)F)cc4)cc3CC(=O)N([C@H](C)CO)C[C@H]2C)cc1	inactive: 1.02
COCC#Cc1ccc2c(c1)O[C@H](CN(C)S(=O)(=O)c1ccc(F)cc1)[C@H](C)CN([C@@H](C)CO)S2(=O)=O	inactive: 1.01
COc1ccc(S(=O)(=O)Nc2ccc3c(c2)C(=O)N([C@@H](C)CO)C[C@H](C)[C@@H](CN(C)S(=O)(=O)c2ccccc2)O3)cc1	inactive: 1.01
CCOc1ccc(S(N)(=O)=O)cc1	inactive: 0.947
COc1ccc(S(=O)(=O)Nc2ccc3c(c2)C(=O)N([C@H](C)CO)C[C@H](C)[C@@H](CN(C)C(=O)NC(C)C)O3)cc1	inactive: 0.999
O=S1(=O)NCNc2ccccc21	inactive: 0.991
O=C(N[C@H](c1ccc2ccccc2n1)c1cccs1)C1CCN(Cc2cccc(C(F)(F)F)c2)CC1	inactive: 0.995

SMILES	relative growth
C[C@H](CO)N1C[C@H](C)[C@@H](CN(C)C(=O)C2CCCCC2)OCCCC[C@H](C)Oc2ccc(NS(=O)(=O)c3ccccc3)cc2C1=O	inactive: 1.01
Cn1nc(C(=O)O)c2ccccc2c1=O	inactive: 1.01
COCC#Cc1ccc2c(c1)O[C@H](CN(C)S(=O)(=O)c1ccc(F)cc1)[C@@H](C)CN([C@@H](C)CO)S2(=O)=O	inactive: 0.995
C[C@H]1CN([C@@H](C)CO)C(=O)CCCn2nncc2CO[C@H]1CN(C)C(=O)Nc1cccc(Oc2ccccn2)c1	inactive: 0.989
O=C1/C(=C/C=C/c2ccco2)CCC/C1=C\C=C\c1ccco1	inactive: 0.991
O=C(C[C@@H]1C=C[C@@H](NC(=O)CN2CCOCC2)[C@@H](CO)O1)NCCc1ccccc1	inactive: 1.04
CC(C)NC(=O)Nc1ccc2c(c1)C(=O)N([C@H](C)CO)C[C@H](C)[C@@H](CN(C)Cc1ccc(C(F)(F)F)cc1)OCCCC[C@H](C)O2	inactive: 1.01
C[C@@H]1CN([C@@H](C)CO)C(=O)Cc2cc(NC(=O)Nc3cccc4ccccc34)ccc2O[C@H]1CN(C)Cc1ccc(C(F)(F)F)cc1	inactive: 1.04
C[C@@H]1CN([C@H](C)CO)C(=O)c2cc(NS(=O)(=O)c3ccc(F)cc3)ccc2O[C@H]1CN(C)S(C)(=O)=O	inactive: 1
C[C@@H]1CCCCO[C@H](CN(C)S(=O)(=O)c2cccs2)[C@@H](C)CN([C@@H](C)CO)C(=O)c2cc(NC(=O)Nc3ccc(F)cc3)ccc2O1	inactive: 1.01
Nc1c(O)cccc1C(=O)C[C@H](N)C(=O)O	inactive: 1.02
COc1ccc(S(=O)(=O)N2C[C@@H](O)COC[C@@H]3O[C@@H](CC(=O)NCc4ccc(Cl)c(Cl)c4)CC[C@H]32)cc1	inactive: 1.03
CCNC(=O)C[C@@H]1CC[C@@H]2[C@H](COC[C@H](O)CN2C(=O)Nc2c(C)noc2C)O1	inactive: 1
Cc1ccc(S(=O)(=O)N(C)C[C@H]2Oc3ccc(NC(=O)NC(C)C)cc3C(=O)N([C@@H](C)CO)C[C@@H]2C)cc1	inactive: 0.978
CCc1cn(C2OCC(O)C2CO)c(=O)nc1O (configuration not stated)	inactive: 1.02
Cc1cccc(N2C[C@@H](CN)OC2=O)c1	inactive: 0.93
CO[C@@H]1CN(C)C(=O)c2ccc(NS(=O)(=O)c3cn(C)cn3)cc2OC[C@@H](C)N(CCC(F)(F)F)C[C@H]1C	inactive: 1.03
C[C@@H]1CCCCO[C@H](CN(C)C(=O)Nc2cccc3ccccc23)[C@H](C)CN([C@@H](C)CO)C(=O)c2cc(N(C)C)ccc2O1	inactive: 0.993
Cc1noc(C)c1NC(=O)Nc1ccc2c(c1)CC(=O)N([C@@H](C)CO)C[C@@H](C)[C@H](CN(C)Cc1ccc(C(F)(F)F)cc1)O2	inactive: 1.04
Cc1noc(C)c1S(=O)(=O)Nc1ccc2c(c1)C(=O)N([C@H](C)CO)C[C@@H](C)[C@@H](CN(C)S(=O)(=O)c1ccccc1)O2	inactive: 0.978
C[C@H]1CN([C@@H](C)CO)C(=O)Cc2cc(N(C)C)ccc2O[C@H]1CN(C)S(=O)(=O)c1ccc(F)cc1	inactive: 0.991

SMILES	relative growth
c1ccc2c(CSc3nc4ccccc4s3)cccc2c1	inactive: 1.04
O=C(O)[C@H](O)[C@@](O)(Cc1ccc(O)cc1)C(=O)O	inactive: 0.979
Cc1cnc(C(=O)NCCc2ccc(S(=O)(=O)NC(=O)NC3CCCCC3)cc2)cn1	inactive: 1.15
C[C@@H]1CCCCO[C@H](CN(C)CC2CCCCC2)[C@H](C)CN([C@@H](C)CO)C(=O)c2cc(NS(=O)(=O)c3ccc(Cl)cc3)ccc2O1	inactive: 0.994
COc1ccc(S(=O)(=O)Nc2ccc3c(c2)C(=O)N([C@H](C)CO)C[C@H](C)[C@@H](CN(C)Cc2ccc(C(=O)O)cc2)OCCCC[C@@H](C)O3)cc1	inactive: 0.989
CCS(=O)(=O)N1CC[C@]2(CC1)CN([C@@H](CO)c1[nH]c3cc(ccc3c12)OC)C(=O)Cc1ccccn1	inactive: 0.997
C[C@@H]1CN([C@H](C)CO)C(=O)c2cc(NC(=O)NC3CCCCC3)ccc2O[C@H]1CN(C)C(=O)Nc1ccc(C(F)(F)F)cc1	inactive: 1.01
CNC(=O)C[C@@H]1CC[C@@H]2[C@@H](COc3ccc(NC(=O)c4ccc(C(F)(F)F)cc4)cc3C(=O)N2C)O1	inactive: 1
CC(C)NC(=O)Nc1ccc2c(c1)C(=O)N([C@H](C)CO)C[C@@H](C)[C@@H](CN(C)C(=O)C1CCCCC1)OCCCC[C@@H](C)O2	inactive: 1.01
Cc1noc(C)c1S(=O)(=O)N(C)C[C@H]1Oc2ccc(NS(=O)(=O)c3cn(C)cn3)cc2C(=O)N([C@H](C)CO)C[C@H]1C	inactive: 1.02
C[C@@H]1[C@@H]([Si](C)(C)F)[C@H](CCO)O[C@@]12C(=O)N(Cc1ccccc1)c1ccc(N(C=O)c3ccccc3)cc12	inactive: 1.02
Nc1nc(N)nc(-c2cc(Cl)ccc2Cl)n1.O=C(O)C=CC(=O)O	inactive: 1.04
CCCC#Cc1ccc2c(c1)O[C@@H](CN(C)S(=O)(=O)c1cccc(F)c1)[C@@H](C)CN([C@H](C)CO)S2(=O)=O	inactive: 1.01
C[C@@H]1CN([C@@H](C)CO)C(=O)c2cccc(NC(=O)Nc3ccc(F)cc3)c2O[C@H]1CN(C)Cc1ccc(C(=O)Nc2ccccc2N)cc1	inactive: 0.983
C[C@@H]1CN([C@@H](C)CO)C(=O)c2cc(NC(=O)c3ccccc3)ccc2O[C@@H](C)CCCCO[C@H]1CN(C)C(=O)c1ccccc1	inactive: 1
COc1ccc(S(=O)(=O)Nc2ccc3c(c2)C(=O)N([C@H](C)CO)C[C@@H](C)[C@H](CN(C)C(=O)C2CCCCC2)OCCCC[C@@H](C)O3)cc1	inactive: 1.01
O=C(C[C@H]1CC[C@@H]2[C@H](COC[C@H](O)CN2S(=O)(=O)c2ccc(F)cc2)O1)N[C@H]1CCN(Cc2ccccc2)C1	inactive: 0.939
CC(C)NC(=O)Nc1ccc2c(c1)C(=O)N([C@H](C)CO)C[C@H](C)[C@H](CN(C)C(=O)Nc1ccccc1)OCCCC[C@H](C)O2	inactive: 1.01
Cc1noc(C)c1NC(=O)Nc1ccc2c(c1)C(=O)N([C@H](C)CO)C[C@H](C)[C@H](CN(C)C(=O)Cc1ccccc1)OCCCC[C@H](C)O2	inactive: 1.02
COc1ccc(S(=O)(=O)Nc2ccc3c(c2)CC(=O)N([C@H](C)CO)C[C@H](C)[C@H](CN(C)C(=O)NC(C)C)O3)cc1	inactive: 0.983
